Experimental data published in PubChem BioAssay AID1347055 (National Center for Advancing Translational Sciences (NCATS), 2019).
Values joined by “and” are separate entries in the source; they are usually repeats but may differ in a detail not shown here. Equal entries are not always repeated. The whole screen tested about 54,000 compounds, of which about 120 (0.22%) were called active. The inconclusive results got no clear call from the source; some entries with a clear call stand among them for comparison. Calls come from the whole dose curve; as a rule, active = well fitted inhibition curve with a large enough effect; inconclusive = small, poorly fitted or top-dose-only effect, or effect the other way; inactive = flat fitted curve, though single readings scatter. No potency is given beside an inconclusive call; the fits are too rough.

Target: Fumarate hydratase, mitochondrial (Homo sapiens) (UniProt P07954)
Sequence of UniProt P07954 (P07954 whole entry, looked up): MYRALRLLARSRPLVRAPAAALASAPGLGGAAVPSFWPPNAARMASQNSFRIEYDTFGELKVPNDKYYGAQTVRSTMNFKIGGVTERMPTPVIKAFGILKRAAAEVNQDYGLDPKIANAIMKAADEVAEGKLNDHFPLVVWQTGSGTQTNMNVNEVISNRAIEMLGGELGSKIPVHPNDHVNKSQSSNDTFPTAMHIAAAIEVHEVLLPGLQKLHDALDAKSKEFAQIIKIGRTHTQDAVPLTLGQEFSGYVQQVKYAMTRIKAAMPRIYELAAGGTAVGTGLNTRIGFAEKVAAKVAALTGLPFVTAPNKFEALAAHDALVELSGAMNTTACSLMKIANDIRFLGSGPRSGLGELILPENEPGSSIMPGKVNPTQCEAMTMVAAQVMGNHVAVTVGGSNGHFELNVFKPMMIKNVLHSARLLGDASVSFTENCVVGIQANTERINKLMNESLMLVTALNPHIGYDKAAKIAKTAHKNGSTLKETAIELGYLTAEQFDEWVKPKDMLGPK
Assay: Identification of activators of human fumarate hydratase by quantitative high-throughput screening; note: the screen sought activators but most active calls are inhibition curves; nearly all actives have a fitted effect of over 45% in size
Conditions: FH coupled MDH/diaphorase resazurin fluorescence, 15 min; activity change, negative = inhibition: at 79.9 µM (top of the series)
% is set by controls: 0 for no effect and ±100 for the full control effect; potency is the fitted concentration of half-maximal effect; tags give direction and shape of the fitted curve.

| SMILES | Potency | activity change, negative = inhibition |
| --- | --- | --- |
| O=C(Nc1cccc(Cl)c1)c1c(NC(=O)C(F)(F)F)sc2c1CCCC2 | inconclusive [inhibitor, single point] |  |
| CCOc1ccccc1NC(=O)CSc1nc2ccccc2nc1Cc1ccc(C)cc1 | inconclusive [inhibitor, partial curve, poor fit] |  |
| COc1cccc(-n2nc(C(=O)O)cc2-c2ccc(C3CCCCC3)c(Cl)c2)c1 | inconclusive [inhibitor, single point] |  |
| CCCOc1cccc(C(=O)Nc2cc(-c3nc4ccccc4[nH]3)ccc2C)c1 | inconclusive [inhibitor, partial curve] |  |
| CCCc1cnc2c(c1SCc1cccc(C)c1)c(=O)n(C)c(=O)n2C | inconclusive [inhibitor, partial curve, poor fit] |  |
| CC(=O)N1CCCC1c1nc2ccccc2n1Cc1c(F)cccc1Cl (stereo unspecified) |  | inactive: -3.28% |
| O=C(CSc1nnc(-c2ccccc2Br)n1-c1ccccc1)c1ccc(F)cc1 |  | inactive: -16.2% |
| CC(C)(C)C1CCc2nc(NC(=O)c3cccc(Cl)c3)sc2C1 (stereo unspecified) | inconclusive [inhibitor, partial curve, poor fit] |  |
| Cn1c(=O)c(-c2c(Cl)cccc2Cl)cc2cnc(Nc3ccc(N4CCOCC4)cc3)nc21 | inconclusive [inhibitor, partial curve, poor fit] |  |
| COc1cc2c(cc1OC)-c1cc(=Nc3c(C)cc(C)cc3C)n(C)c(=O)n1CC2 | inconclusive [inhibitor, partial curve, poor fit] |  |
| Cc1oc(-c2ccccc2Cl)nc1CS(=O)CC(=O)N1CCN(c2cccc(C(F)(F)F)c2)CC1 (stereo unspecified) | inconclusive [inhibitor, single point] |  |
| Cc1ccc(C)c(N2CCN(C(=O)Cn3cnc4sc(C)c(S(=O)(=O)N5CCN(c6ncccn6)CC5)c4c3=O)CC2)c1 | inconclusive [inhibitor, partial curve, poor fit] |  |
| CCC(=O)N1c2ccccc2CC1C(=O)NCCc1ccc(SC)cc1 (stereo unspecified) | inconclusive [inhibitor, single point] |  |
| COC(=O)CC1(O)C(=O)Nc2ccccc21 (stereo unspecified) |  | inactive: 8.7% |
| C[C@@H](N[C@H]1CCCC[C@@H]1NC(=O)c1ccc(Cl)cc1)c1cccc2ccccc12 | inconclusive [inhibitor, single point] |  |
| CCc1ccc2oc(C(=O)NCC(c3ccc(Cl)cc3)N3CCOCC3)c(C)c2c1 (stereo unspecified) | inconclusive [inhibitor, partial curve] |  |
| Cc1ccc(-n2ncc3c(N4CCCCC4)ncnc32)cc1Cl |  | inactive: -13.5% |
| COC1=C(OC)C(=O)C(CCCCCCCCCCO)=C(C)C1=O | active: 6.92 µM and active: 19.3 µM |  |
| COc1ccc(NC(=O)c2cc(=O)c3cc(C)cc(C)c3o2)cc1 | inconclusive [inhibitor, single point] |  |
| Cc1nc2c(-c3ccccc3)c(C)[nH]n2c(=O)c1Cc1ccc(Br)cc1 |  | inactive: 9.33% |
| Cc1ccccc1OCC(=O)Nc1ccc2[nH]c(=O)sc2c1 |  | inactive: -4.04% |

| SMILES | Potency | activity change, negative = inhibition |
| --- | --- | --- |
| COc1cc(OC)cc(-c2nc3nc(C)c(CCC(=O)Nc4ccccc4)c(C)n3n2)c1 | inconclusive [inhibitor, partial curve, poor fit] |  |
| CC(C)CCNC(=O)c1c[nH]c2ccc(S(=O)(=O)Nc3cccc(C(F)(F)F)c3)cc2c1=O |  | inactive: -19.2% |
| Cc1ccc(C(=O)N2CC(=O)Nc3ccc(Br)cc3C2c2ccc(F)cc2)cc1C (stereo unspecified) | inconclusive [inhibitor, partial curve, poor fit] |  |
| Cc1cc(-n2c(SCc3ccccc3F)nc3[nH]ncc3c2=O)ccc1Cl | inconclusive [inhibitor, single point] |  |
| CS(=O)(=O)c1ncc(N(Cc2ccco2)Cc2cccs2)c(C(=O)Nc2ccccc2F)n1 | inconclusive [inhibitor, partial curve, poor fit] |  |
| COc1ccc(Cl)cc1NC(=O)C(C)n1c(=O)cc(C(F)(F)F)c2c(C)nn(C)c21 (stereo unspecified) | inconclusive [inhibitor, single point] |  |
| CC(C)(C)OC(=O)N1CCC(c2nnc(SCc3ccccc3Cl)o2)CC1 | inconclusive [inhibitor, partial curve, poor fit] |  |
| Cc1c(CCNC(=O)c2ccc(C(C)(C)C)cc2)sc2nc(-c3ccc(F)cc3)nn12 | inconclusive [inhibitor, single point] |  |
| CC(C)(O)c1ccc2c(c1)C(O)C[C@H]1[C@](C)(C(=O)O)CCC[C@]21C (stereo partly specified) |  | inactive: -1.44% [at 53.3 µM] |
| Cc1cc(C)cc(N2C(=O)CSC23C(=O)N(Cc2c(F)cccc2Cl)c2ccccc23)c1 (stereo unspecified) | inconclusive [inhibitor, single point] |  |
| Cc1cccc2nc(-c3ccccn3)c(Nc3ccc(F)cc3)n12 | inconclusive [activator, partial curve] |  |
| Cc1ccc2nc(SCc3nc(-c4ccc(Cl)cc4)no3)[nH]c2c1 | inconclusive [inhibitor, partial curve] |  |
| CSc1ccccc1-c1nnc(NC(=O)c2ccc3c(c2)OCCO3)o1 | inconclusive [activator, partial curve, poor fit] |  |
| Cc1cc(Br)ccc1NC(=O)CSc1c2c(nc3ccccc13)CCC2 | inconclusive [inhibitor, partial curve, poor fit] |  |
| O=C(CSc1nc2ccccc2n1Cc1cccc(F)c1)NCc1ccccc1 | inconclusive [inhibitor, single point] |  |
| CCC(=O)N1c2ccccc2CC1C(=O)NCc1ccc(CC)cc1 (stereo unspecified) | inconclusive [inhibitor, single point] |  |
| CC(C)(C)Cn1c(N)nc2ccc(-c3[nH]c(C(C)(C)C)nc3-c3ccc(F)cc3)nc21 | inactive |  |
| CCCCC(=O)OC1=CN(Cc2ccccc2)S(=O)(=O)c2ccccc21 | inconclusive [inhibitor, partial curve, poor fit] |  |
| COc1ccc(OCC(=O)NCc2ccc3c(c2)CCN3C(=O)c2cccc(C)c2)cc1 |  | inactive: -11.4% |
| Cc1cc(C)cc(NC(=O)CCn2cnc3ccccc3c2=O)c1 | inconclusive [inhibitor, partial curve, poor fit] |  |
| COc1cc(C2Oc3c(OC)cc(/C=C/C(=O)OC4CC(O)(C(=O)O)CC(O)C4O)cc3C2CO)ccc1O (stereo unspecified) |  | inactive: -0.574% [at 53.3 µM] |

| SMILES | Potency | activity change, negative = inhibition |
| --- | --- | --- |
| Cc1ccc(OCCn2c(C3CC(=O)N(Cc4ccc(F)cc4)C3)nc3ccccc32)c(C)c1 (stereo unspecified) | inconclusive [inhibitor, full curve, poor fit] |  |
| CCC(CC)Nc1nc(C)c(-c2ccc(OC(F)(F)F)cc2OC)nc1OC | inconclusive [activator, single point] |  |
| Cc1ccc(C(=O)C(=O)O)cc1C |  | inactive: -12.5% [at 53.3 µM] |
| Cc1ccc(C)c(CN2C(=O)c3ccccc3S(=O)c3ccc(C(=O)N4CCCCC4)cc32)c1 (stereo unspecified) | inconclusive [inhibitor, single point] |  |
| CCOC(=O)c1ccc(NC(=O)CC(C)n2nc(C)cc2C)cc1 (stereo unspecified) | inconclusive [inhibitor, partial curve, poor fit] |  |
| O=C(CN1C(=O)COc2ccc(S(=O)(=O)N3CCCCCC3)cc21)N1CCN(c2ccc(Cl)cc2)CC1 | inconclusive [inhibitor, partial curve, poor fit] |  |
| O=c1[nH]c(C2CCCN(S(=O)(=O)c3ccccc3)C2)nc2c1nnn2Cc1ccccc1Br (stereo unspecified) | inconclusive [inhibitor, partial curve, poor fit] |  |
| O=C(NCCCN1CCN(c2ccccc2F)CC1)c1ccc2nc(CCc3ccccc3)oc2c1 | inconclusive [inhibitor, partial curve, poor fit] |  |
| CCOc1ccc(NC(=O)c2nc(S(=O)(=O)Cc3ccccc3F)ncc2Cl)cc1 |  | inactive: -4.63% |
| COc1ccc(S(=O)(=O)n2nc(-c3ccco3)nc2NCc2ccc(C(C)C)cc2)cc1 | inconclusive [inhibitor, partial curve, poor fit] |  |
| O=C(O)CCc1ccc(NCc2cccc3c2CCCN3CCOc2ccccc2)cc1F | inconclusive [inhibitor, partial curve, poor fit] |  |
| COc1cc(C(=O)OC[C@H]2O[C@H](O[C@@]3(CO)O[C@@H](CO)[C@H](O)[C@H]3O)[C@H](O)[C@@H](O)[C@@H]2O)ccc1O |  | inactive: 6.25% [at 53.3 µM] |
| Cc1cc(=O)oc2cc(O)ccc12 | inactive |  |
| CC(C)CCNc1nc(Nc2ccccc2)c2cnn(C)c2n1 | inconclusive [inhibitor, partial curve, poor fit] |  |
| Cc1ccc(C)c(NC(=O)c2nc(S(=O)(=O)Cc3ccc(F)cc3)ncc2Cl)c1 |  | inactive: 3.25% |
| O=C(Nc1cc(-c2cccc(Cl)c2)nn1-c1ccccc1)c1ccccc1F | inconclusive [inhibitor, partial curve, poor fit] |  |
| CCc1ccccc1S(=O)(=O)Cc1ccc(C(=O)NCCc2ccc(Cl)cc2)o1 | inconclusive [inhibitor, partial curve, poor fit] |  |
| COc1ccc(-c2nc(SCC(=O)Nc3ccc4c(c3)OCCO4)c(-c3ccccc3)[nH]2)cc1 | inconclusive [inhibitor, partial curve, poor fit] |  |
| CCSc1nn(CC(=O)Nc2cccc(Cl)c2)c(N)c1S(=O)(=O)c1ccc(OC)cc1 | inconclusive [inhibitor, single point] |  |
